Reference: article PMC6919601, “Identification of Plasmodium dipeptidyl aminopeptidase allosteric inhibitors by high throughput screening” (PLoS ONE, 2019)
About 230 (0.21%) of roughly 110,000 compounds showed an effect of 50% or more. The list shows a part of the results.

The molecules below were run against DPAP1 (Plasmodium falciparum, UniProt Q8IIJ9) (assay: primary screen, percent inhibition; read by cleavage of a fluorogenic dipeptide substrate; higher = more effect of the substance).
Design: species or system P. falciparum D10 trophozoite lysates; single well
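Further: 30 min substrate incubation versus DMSO and 10 µM JCP410 controls.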

Sequence of DPAP1 (Q8IIJ9 whole entry, looked up): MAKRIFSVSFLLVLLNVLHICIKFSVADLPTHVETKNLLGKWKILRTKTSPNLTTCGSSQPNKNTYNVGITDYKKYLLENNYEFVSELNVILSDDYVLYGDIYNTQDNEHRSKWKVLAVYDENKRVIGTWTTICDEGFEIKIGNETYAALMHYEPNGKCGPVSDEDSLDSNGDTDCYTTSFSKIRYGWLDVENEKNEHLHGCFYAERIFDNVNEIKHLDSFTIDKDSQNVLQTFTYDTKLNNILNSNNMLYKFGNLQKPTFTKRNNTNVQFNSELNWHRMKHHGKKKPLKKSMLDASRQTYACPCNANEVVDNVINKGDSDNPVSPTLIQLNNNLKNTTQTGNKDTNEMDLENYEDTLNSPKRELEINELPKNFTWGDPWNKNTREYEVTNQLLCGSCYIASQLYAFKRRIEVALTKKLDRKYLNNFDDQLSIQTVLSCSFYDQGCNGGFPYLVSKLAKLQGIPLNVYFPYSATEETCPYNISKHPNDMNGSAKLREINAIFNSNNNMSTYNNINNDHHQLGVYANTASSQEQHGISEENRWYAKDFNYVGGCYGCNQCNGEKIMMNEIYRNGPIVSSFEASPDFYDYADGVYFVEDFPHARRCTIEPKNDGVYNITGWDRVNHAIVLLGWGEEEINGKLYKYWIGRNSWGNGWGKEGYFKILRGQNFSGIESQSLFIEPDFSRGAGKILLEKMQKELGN

SMILES | % Inhibition @ 10 uM [%]
CCCCN(CCCC)CCNC(=O)CN1N=C(c2ccc(OC)cc2)CCC1=O | 4.81
Cc1nc2c3c(-c4ccc(C(C)C)cc4)nc(N4CCOCC4)nc3nn2c(C)c1CCC(=O)O | 4.23
CS(=O)(=O)CCC(C(=O)N1CCN(C(=O)c2ccco2)CC1)N1Cc2ccccc2C1=O (stereo not shown) | -4.38
COc1ccc(CN2CCN(c3ccccc3)CC2)cc1Br | -0.192
O=C(Nc1c(C(=O)NC2CCCCC2)cnn1-c1ccccc1)c1ccccc1 | -1.19
Cc1ccc(OCC(=O)Nc2ccc3ccccc3c2)cc1 | -5.11
Cc1cc2ccccc2n1-c1ccc(C(=O)N2CCOCC2)s1 | 1.95
CCOC(=O)N1CCC(NS(=O)(=O)c2cc(C(=O)OC)n(C)c2)CC1 | -2.84
CCC(C)Oc1ccc(/C=C2/NC(=O)NC2=O)cc1Br (stereo not shown) | 2.17
Cn1c(C(=O)NCCc2ccc(S(N)(=O)=O)cc2)cc2sc(Cl)cc21 | -4.85
COc1ccc(NC(=O)c2sc3nc4c(cc3c2N)CCCCC4)cc1OC | 2.82
N#Cc1c(N)nc2c(c1-c1ccsc1)CCCCCC2 | -2.7
NC(=O)c1cc2nc(-c3ccccc3)cc(C(F)(F)F)n2n1 | 2.65
CC(C)(C)c1ccc(C(=O)NC2(C(F)(F)F)NC(=O)N(C3CCCCC3)C2=O)cc1 (stereo not shown) | 0.221
N#CC1=C(N)Oc2ncnc(O)c2C1c1ccccc1C(F)(F)F (stereo not shown) | -2.78
COc1cccc(CN2CCN(Cc3ccc(Cl)cc3)CC2)c1OC | -10.5
COc1ccc2sc3ccccc3c(=O)c(=O)c2c1 | -17.7
CN1CCC(N(C)Cc2cccc(C(F)(F)F)c2)CC1 | 2.33
Cc1nn2c3c(cnc2c1-c1ccc(Cl)cc1)C(=O)CCC3 | -4.78
O=C(CN1CCN(Cc2ccc(Cl)cc2)C1=O)NCc1ccc(Cl)cc1 | -0.984
CCOC(=O)c1sc(N2C(=O)C(O)=C(C(=O)c3ccco3)C2c2ccc(C(C)(C)C)cc2)nc1C (stereo not shown) | 3.8
COc1ccc(S(=O)(=O)N(CC(=O)Nc2cccnc2)c2ccc(C)cc2)cc1Br | 1.62
Cc1ccccc1C1C=C(c2cccs2)Nc2nnnn21 (stereo not shown) | -5.19
COc1cccc(NC(=O)CN(c2cccc(Br)c2)S(C)(=O)=O)c1 | 1.67
CCOc1cccc2c1OC(c1cccc(OC)c1OC)N1N=C(c3ccc(C)o3)CC21 (stereo not shown) | 26.2

SMILES | % Inhibition @ 10 uM [%]
CC(C)=C1C2CCC1C(C(=O)Nc1cccc(C(F)(F)F)c1)C2C(=O)O (stereo not shown) | 3.91
CC1CCN(S(=O)(=O)c2ccc(NC(=O)CCCOc3ccccc3)cc2)CC1 | -0.185
Cc1ccccc1-c1nc(CS(=O)CC(=O)NCCCN2CCOCC2)c(C)o1 (stereo not shown) | 2.37
CCCCOc1ccc(Nc2cc(-c3ccccc3)nc(-c3ccccc3)n2)cc1 | 1.87
CCc1nn(CC(=O)N2CCOCC2)c(=O)c2cc3sccc3n12 | 3.4
COc1ccccc1NC(=O)C1=C(C)Nc2nc(CCCO)nn2C1c1ccc(O)cc1 (stereo not shown) | 3.53
CCCN(C/C=C/c1ccccc1OC)CCO | -1.78
CCCCCOc1ccc(C2c3c(oc4ccccc4c3=O)C(=O)N2c2nccs2)cc1OC (stereo not shown) | -0.828
Fc1ccc(C2CC(c3ccco3)n3ncnc3N2)cc1 (stereo not shown) | -8.62
CCOCCCNC(=O)C(c1ccc(Cl)cc1)N1CCOCC1 (stereo not shown) | 6.57
Fc1ccc(N2CCN(Cc3ccc(Cl)c(Cl)c3)CC2)cc1 | -3.13
c1cncc(CNCc2ccncc2)c1 | 3.36
CCN(CC)S(=O)(=O)NC(=O)Nc1nc(C)cc(C)n1 | 3.78
CC(=O)N(CN1C(=O)C2CCC(C)CC2C1=O)c1ccc(C)cc1 (stereo not shown) | 5.46
O=C(O)C1CCCCC1C(=O)Nc1ccc(F)c(F)c1 (stereo not shown) | -8.06
CCOC(=O)C1=C(C)NC(=O)N(C(C)=O)C1c1ccc(Cl)cc1 (stereo not shown) | -9.37
N#Cc1ccc(NC(=O)/C=C/c2ccccc2)cc1 | 6.18
Cc1c(OCc2ccccc2)ccc2c3c(c(=O)oc12)CCC3 | -3.98
CCn1c(C(=O)NCc2ccccc2F)cc2oc3ccccc3c21 | -8.96
COC(=O)C1=C(C)N(C)C(=O)NC1c1ccc(OC(F)(F)F)cc1 (stereo not shown) | 0.503
COc1ccc(-n2cc(-c3ccc(C)cc3)nc2SCC(=O)NCC2CCCO2)cc1 (stereo not shown) | 4.33
NC(=O)NC(c1ccc(Cl)cc1)c1ccc(Cl)cc1 | -7.06
Cn1c(-c2ccccc2)cn2c3ccccc3nc12 | -1.96
N#C/C(=C\c1cccc2ccccc12)c1nn(-c2ccccc2)c(N)c1C#N | 6.5
CS(=O)(=O)N(CCc1ccccc1)CC(=O)Nc1cc(C(F)(F)F)ccc1Cl | 2.82

SMILES | % Inhibition @ 10 uM [%]
COc1cc(C(=O)/N=c2\c(C)cccn2C(=O)c2cc(OC)c(OC)c(OC)c2)cc(OC)c1OC | 3.94
CCCC(=O)Nc1ccc(S(=O)(=O)Nc2nccs2)cc1 | 0.324
COCCNC(=O)Cn1cnc2sc(C)cc2c1=O | -2.17
CCCCSC1=C(C#N)C(c2ccc(O)c(OC)c2)C2=C(O)CCCC2=N1 (stereo not shown) | -7.02
CCOc1ccc(C2CC(=O)N=C(NC(=O)c3cccnc3)N2)cc1 (stereo not shown) | 0.6
COC(C)(C)CCC[C@@H](C)C(=O)OC(C)C | -3.58
COc1ccc(C2C(C(=O)NCC3CCCO3)c3cc(OC)c(OC)cc3C(=O)N2C)cc1OC (stereo not shown) | -2.9
C=CCOc1ccc(/C=C2\Oc3ccc(C(=O)OC)cc3C2=O)cc1 | -1.37
O=C(NCc1ccc(F)cc1)c1ccc2c(O)c(S(=O)(=O)c3ccc(Cl)cc3)c(O)nc2c1 | 2.73
CCN1CCN(CCCNC(=O)c2cc3c(s2)-c2ccccc2S(=O)(=O)C3)CC1 | -3.96
Cc1ccc(NC(=O)CCN2C(=O)CSC2=O)cc1 | -3.25
Cn1c(=O)c2c(nc(Cl)n2CC(O)CO)n(C)c1=O (stereo not shown) | 3.47
CCCN(Cc1cc([N+](=O)[O-])ccc1Cl)CC1CC1 | -0.0494
COc1ccc(-c2nc(CSCC(=O)NC(C)c3ccccc3)c(C)o2)cc1OC (stereo not shown) | -1.05
Cc1ccc(C(=O)Nc2ccc3nc(SCC(=O)N4CCOCC4)sc3c2)cc1 | 4
O=C(N/C(=C\c1cccs1)C(=O)N1CCN(Cc2ccccc2)CC1)c1ccccc1 | -1.08
Brc1ccc(C2Oc3ccccc3C3CC(c4cccs4)=NN32)o1 (stereo not shown) | 40.7
COCCCNC(=O)c1cc2c(s1)CS(=O)(=O)C2 | -3.84
CCN(CC)C(=O)C1CCCN(C2Cc3ccccc3C2)C1 (stereo not shown) | 4.65
CN1CCN(C(=O)c2ccc(CS(=O)c3ccc(Cl)cc3)o2)CC1 (stereo not shown) | -3.09
CC1=CC2(CCC(C)CC2C(=O)NCc2ccc(Cl)cc2)OC1=O (stereo not shown) | -0.406
N=C1/C(=C\c2ccco2)C(=O)N=C2SC(N3CCCC3)=NN12 | -5.27
O=C(ON1C(=O)c2cccc3cccc(c23)C1=O)c1ccco1 | -0.958
CCOc1cccc(C(=O)Nc2ccccc2F)c1 | 6.15
COc1cccc2c1cc1c(=O)n(CC(=O)NCCCOC(C)C)nc(C)n12 | 4.84

SMILES | % Inhibition @ 10 uM [%]
CS(=O)(=O)CC[C@@H](C(=O)NC1CCCCCC1)N1Cc2ccccc2C1=O | 4.54
CCOC(=O)c1c(NC(C)=O)sc2c(O)c(CN3CCN(CC)CC3)ccc12 | 4.66
Cc1cc(C)n(Cc2ccccc2F)c(=O)c1C#N | -5.8
CC1C/C(=C/c2ccncc2)C(=O)/C(=C/c2ccncc2)C1 (stereo not shown) | 2.59
COc1ccc(CNC(=O)CS(=O)(=O)Cc2nc(-c3ccc(C)cc3)oc2C)cc1 | -5.58
Cc1ccc(-c2cc(C(F)(F)F)n3nc(C(=O)NCCCN4CCOCC4)cc3n2)cc1 | -4.59
Cc1cccn2c(=O)c3cc(C#N)c(=N)n(CCOCCO)c3nc12 | -1.47
COc1ccc(CN(C(=O)c2cccc(F)c2)C2CC(=O)N(c3ccccc3)C2=O)cc1 (stereo not shown) | 3.05
COCCNCc1c(C(=O)O)n(Cc2ccccc2)c2ccccc12 | 1.93
Cn1nc(C(=O)NCCOC23CC4CC(CC(C4)C2)C3)c2c1-c1ccccc1SC2 | 10.7
OC(c1ccccc1)c1nc2ccccc2s1 (stereo not shown) | 7.49
O=C(Cn1cnc2c(nnn2Cc2ccccc2F)c1=O)NC1CCCCC1 | 2.85
COc1ccc(Cn2cc[nH]c(=O)c2=O)cc1 | 1.02
O=C(NCC1CCCO1)C1CCN(C(=O)c2cc3sccc3n2Cc2ccc(Cl)cc2)CC1 (stereo not shown) | 0.137
O=C(COCc1cc(-c2ccco2)on1)NCc1cccs1 | -1.58
CN(C)c1ccc(CN2CCN(CCO)CC2)cc1 | 5.56
Cc1ccc(CNC(=O)c2cc3c(=O)n(Cc4ccccc4)ccc3nc2C)o1 | 0.411
CCCCNC(=O)CN1C(=O)c2cccc3cccc1c23 | -6.02
COc1ccc(CNC(=O)c2oc3ccc4c(c3c2C)C(=O)CC(C)(C)O4)cc1 | -8.96
COc1ccc(Cl)cc1C(=O)N1C(C)CCCC1C (stereo not shown) | 5.24
Cc1ccc(C)c(NCc2ccccc2CO)c1 | -7.96
CCN(CC)CCNC(=O)Cn1nc(C)n2c(cc3sccc32)c1=O | -0.0745
CCN(C(C)=O)c1nc(-c2ccc(C3CCCCC3)cc2)cs1 | 0.913
Cc1ccc(CNC(=O)CS(=O)Cc2nc(-c3ccccc3Cl)oc2C)cc1 (stereo not shown) | -1.05
O=C(c1nc(-c2ccc(Cl)cc2)n2c1CCCCC2)N1CCN(c2ccccn2)CC1 | 4.61
